Test results from the supplement of paper PMC11417369.
Some of the results follow.

Test system: PfHDP1 homeodomain (GST-tagged)
Experiment: gcPBM binding intensity (ln(normalized median fluorescence intensity)); higher = stronger DNA binding
Procedure, shortened: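 Binding intensity is defined as the maximum Masliner-normalised natural-log median intensity across replicate spots for either probe orientation. It was measured on an Agilent 4 × 180k array of primer-extended double-stranded 36-bp intergenic genomic probes and negative controls, to which GST-tagged P. falciparum DNA-binding domains made in E. coli were applied for 1 h in 1× PBS with 1% milk, 0.2 mg/ml BSA, 0.5% salmon testes DNA and 0.03% Triton X-100. Detection was by Alexa488 anti-GST antibody and scanning at 488 nm.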

Row | Sequence | gcPBM binding intensity (ln)
1 | TATCGAGCCATTTTTACATGCAATTATACATAATTT [TGCATGCA_site987] | 6.73
2 | TTCAAATAATTTAAATGTACGTTGCTTTATTAAAAG [XGTACX_site3674] | 6.14
3 | CATGTATACTATAATACACACTATAAAATATACACC [CACACA_site7121] | 6.96
4 | TAAAATGAATATAGGTGTACTTAAAAAAAAGTAAAA [XGTACX_site4613] | 6.47
5 | TAAAAGAAATAATATACACACATATATAAAAATAAA [CACACA_site1329] | 6.42
6 | TAAATTCTTTATAATCGTACATAAATAGAAAAATAA [XGTACX_site601] | 6.13
7 | AAAAAAATATATATATATATATATATATATTTATAT [XGTACX_negctrl_site86] | 7.62
8 | TCTTTTTTTAATAAAACATGCAATATTATATATGTA [TGCATGCA_site236] | 6.73
9 | GTAATTATTAATAAAACATGCGTATAAAATTTTCTC [TGCATGCA_site50] | 6.58
10 | TAAATTCTTTAAAACTTTAAAACAAAAAAAAAAAAA [CACACA_negctrl_site1078] | 5.95
11 | ATAAGAAAATCAAAAAGTACTTTTTACAAAGATAAA [XGTACX_site824] | 6.51
12 | ATATACTATATATAATGTACATATATATTATTATGC [XGTACX_site2957] | 6.6
13 | ATTTTATGATATATTTGTACTTAACATTTGGATATA [XGTACX_site5888] | 6.39
14 | TAGTTTTTTATATATTGTACAAATAATATATTATAT [XGTACX_site2564] | 6.73
15 | AAACAAAAAATATATACACACTAAACATAAAAAAAA [CACACA_site4185] | 6.7
16 | AGTGACACCAAAGGGGTGCAATGAAATTAAAAATAT | 8.54
17 | TTTATTCATTTCTAAAAATATTAAAATAGAATGAAT [CACACA_negctrl_site325] | 6.07
18 | TAAAAAAAAATAAATGGTACACAATTAAATGTTTAT [XGTACX_site5255] | 6.21
19 | CACCATGTTAACAAAGCATGCATCTCTATAGTTTTA [TGCATGCA_site97] | 6.87
20 | AAAAAAAAAAAAAGAACATGCGACTTTAAGAACTGG [TGCATGCA_site792] | 6.03
21 | CAAATGTGTTCTTCAGGTACAGATACACATTTATGA [XGTACX_site2664] | 6.21
22 | TATGAAAATAAAATATGTACATATTTTAAATGTTAT [XGTACX_site7352] | 6.68
23 | TAAAAAATTATATATTGTACGAATGCATAAAAAAAA [XGTACX_site4606] | 7.02

Row | Sequence | gcPBM binding intensity (ln)
24 | TTCAAAGGGAAATTAACACACACATATATATATATA [CACACA_site8777] | 9.18
25 | TTTTTAATCTCATATGTATAATATATTTTTATTAAA [XGTACX_negctrl_site236] | 6.21
26 | AATTTTAGATTTAGCACACATTTTTTTTTTTTTTTT [CACACA_site6105] | 7.45
27 | TTTATATAAATTTAAGTGCAAAATGAACAAGTGAAA | 10.3
28 | CCCAAAAAAAATTTATGTACTTATTAAATATATATA [XGTACX_site6455] | 6.69
29 | AAAATATATATTTGTTGTACAATATTAATTATTAAA [XGTACX_site1612] | 7.05
30 | TTCAATGCTAATTTATGTACATATGTATATAAAATA [XGTACX_site8335] | 6.28
31 | TGCAAAGGTGAAAGAACACACAAAAAAAAAAAAAAA [CACACA_site4024] | 6.36
32 | TATGAAATTAGAATTACACACAGGAAAATAAAATGC [CACACA_site6822] | 6.95
33 | CCCTCCCCATGTTTAGTGCAAAAATATTTGAAATTG [GTGCAC_site9873] | 10
34 | TATATATATACCAACACACATACATATATATATATA [CACACA_site1795] | 9.04
35 | TGAATAAATATATATACACACATATCTGTATTTATT [CACACA_site4991] | 6.37
36 | AAATTTGGCAGACACACACACACACGCACACGCACA [CACACA_site6423] | 7.46
37 | ATCATAAATATAGCAACACACGGATTACATAAAATA [CACACA_site2796] | 6.79
38 | TTAAAAAAATAATTAACACACACATGTATATCTATA [CACACA_site9026] | 6.32
39 | TTGTAATAAATAAAAGTGCAGATATGGTTCCACTAA [GTGCAC_site9942] | 6.68
40 | AATGAACTCACGAGCACACACACACCGATATATATA [CACACA_site4710] | 7.03
41 | TATATATATTTAAAGGTGCAGATGCCAGTGTATATT | 8.07
42 | ATAAATATATTTAAATGTACATAATATATATATATA [XGTACX_site5137] | 8.87
43 | ACATATTCATATGGAAGTACGATAATGTAGTCATAT [XGTACX_site7080] | 6.32
44 | ATATATACATACAAATTAATTACGAGGAATATATTA [XGTACX_negctrl_site417] | 6.53
45 | GTAAAAAAATTAAAAATTAACAAGGAATTAAGTATA [CACACA_negctrl_site1688] | 6.22
46 | GGAACTTATTTTTATACACACATATGTGCATATTAT [CACACA_site629] | 10.8

Row | Sequence | gcPBM binding intensity (ln)
47 | TATACATATATATACACACACACATATATATATATA [CACACA_site1299] | 9.3
48 | AAAAAAAATCAAATGGGTACTTATTCTTAATAATAT [XGTACX_site3792] | 6.2
49 | TTTGCGTAGAAATGTGTGCACTGATATTTATAATAA [GTGCAC_site9526] | 9.87
50 | ATTTTCCTTTTACCACGTACACATAAAAACGTTATA [XGTACX_site3595] | 7.09
51 | TGAACTCATAGGAAAACACACATATGGGTAATATAT [CACACA_site187] | 6.78
52 | GTTACATACCTATACACACACATATATAAATAAATA [CACACA_site6549] | 7.08
53 | TAACAAAACATAGATTGTACATATTATAAATGTATA [XGTACX_site1543] | 6.48
54 | CAATATTATATTACTTGTACACATATGTAGTTTCGA [XGTACX_site8945] | 6.67
55 | TTTCCCATAGGAAAAACACACATATATTATATATAA [CACACA_site1981] | 6.22
56 | CAAAATATACACACGTGTACACAAATATTTACAAAA [XGTACX_site2257] | 7.05
57 | ATATAAAAATACAGGTGTACATTTTTTCATATTTAT [XGTACX_site6959] | 6.53
58 | TATTCTTATCTTACCACACACAATGTACGAAAAGAT [CACACA_site6296] | 6.65
59 | TTATGTCGTAAATACACACATACATATACATACACA [CACACA_site1374] | 6.92
60 | TTGTCACTAATAGATGCATGCAATCATTCCATTTTT [TGCATGCA_site938] | 6.84
61 | AATAAATTGAAACACACACACACATATATATATATA [CACACA_site848] | 9.16
62 | TTGTAATGATATATTTGTACTTAATATAATTGTATA [XGTACX_site2748] | 6.33
63 | ATATCTATATTTTAAAGTACGTAGTAAAAAGAAAAA [XGTACX_site4323] | 6.82
64 | TTTTTTTTTTTTCTGTGTACATATATAATATATATA [XGTACX_site1592] | 6.63
65 | TTTTATGAAAAGATGAGTACACAATACTTTTTAATT [XGTACX_site8253] | 6.09
66 | ATCATTTTTTATGCGTGTACATAAATTTATTAGGTT [XGTACX_site2786] | 6.69
67 | TTTTTTGTTAAACCGGTGCATATAAATATATATATA [GTGCAC_site9989] | 10.2
68 | TAATTATTACACGGTATTATATATAATATGTTAAAA [GTGCAC_negctrl_site134] | 6.6
69 | CACAAAAAAGTTCATACACACAACATATTTATATAT [CACACA_site2887] | 6.51

Row | Sequence | gcPBM binding intensity (ln)
70 | TTTTTCAATTGTAGTGGTACAGATATAATTATCTCT [XGTACX_site5500] | 6.64
71 | TGCATGTAATTTTTGTGTCCACATAAAATATTTAAT [XGTACX_site5652] | 6.41
72 | TTCTATATATTATATGCATGTAAAACATATTAAAAT [TGCATGCA_site662] | 6.59
73 | TTTTTATGAAAATAAACACACGATTTATTATATATA [CACACA_site1311] | 6.2
74 | TTTATTGCTCTATATGCACACCTTAATTCTTCATTT [CACACA_site8682] | 11.1
75 | GAAGATTTATCTTGCACACGCAAAAAAAAAAAAAAA [CACACA_site154] | 8.55
76 | GAAAATATTTCTATCTGTACTTATTTATATATATAT [XGTACX_site7317] | 8.51
77 | TACGTAAATTCTAATACACACTATAGGATATTCTGC [CACACA_site7248] | 6.41
78 | AAAAATAATCATAGTAGTACAAAAAAAAAAAAAAAA [XGTACX_site3736] | 6.44
79 | ATGTACTATGATAATGCATGCAATAATACATTTTTA [TGCATGCA_site318] | 6.48
80 | TTATTATGTATATATGCACACAATACCCAAAACAAC [CACACA_site80] | 9.84
81 | TAATATATATATAATACACACTATTTTAATCACATA [CACACA_site4849] | 6.59
82 | TCGAACATTAACATAACACACATATATATATATATA [CACACA_site2900] | 9.29
83 | AAGGTTATTTATATATGTACTTAATATATATATATG [XGTACX_site886] | 6.32
84 | TTTATAATATACATAACACACAATTATTATTTCTTA [CACACA_site3624] | 6.36
85 | TTTTTTTCCTTATCTATATATAATCAAATTTTCTAC [CACACA_negctrl_site867] | 6.51
86 | AACTTTTAGAAGAACACACACATATAGATTATGACC [CACACA_site6256] | 6.82
87 | TTATAACAAATATAGAGTACTAAAATTTTACGTTAT [XGTACX_site1410] | 6.34
88 | ACATGTATTTATAAGAGTACATATGTGTGCATGTTT [XGTACX_site7946] | 10.4
89 | TTTATATATTATATAAATATTATTATACTTTAAATA [TGCATGCA_negctrl_site236] | 5.97
